Publication PMC10696740 (BMC Biology, 2023)
Not every entry of the source has a single result; some have several. They are shown here; other results are not. There may be further records. The records of an entry appear to be repeats on other runs, samples or individuals. Records carry a tag for their origin. The letters are not those of the source and start again with each entry.

Target: PaEF4
Format: binding, P. anaerobius
Settings: BLI, PaEF4 58 μM
Experimental: A streptavidin matrix-coated sensor chip (SA chip) was firstly equilibrated with buffer A (lysis buffer with 0.05% Tween 20) followed with the immobilization BBP (200 μM) on the SA chip. Next, proteins with increasing concentrations (0.23, 0.91, 3.63, 14.50, and 58.00 μM) were passed on to the chip for the measurement of changes in response unit (nm). The program comprises the stabilization of the baseline with the buffer A for 1 min, 6 min incubation of the BBP with the SA chip for immobilization, stabilizing the baseline again for 3 min, association enabling interaction between proteins and compounds for 4 min, and dissociation for 4 min followed by a regeneration step. […] Raw data were pre-processed, analyzed, and fitted using the 1:1 binding model in the manufacturer’s software (9.0, Pall ForteBio Corp, Menlo Park, CA, USA) to generate kinetic parameters.

SMILES: COc1ccc2cc3[n+](cc2c1OC)CCc1cc2c(cc1-3)OCO2 [BBR, Berberine]
- binding affinity of BBR with PaEF4: non-detectable binding affinity [passage A] and doesn’t bind [passage B]
